Source: PubChem BioAssay AID504845 (National Center for Advancing Translational Sciences (NCATS), 2011)
Hit rate of the full screen: of about 390,000 compounds, about 150 (0.038%) were called active. Inconclusive means that the source gave no clear call. Such entries were picked first, then a sample of the others. Calls follow the shape of the dose curve; as a rule, active = well fitted inhibition curve with a large enough effect; inconclusive = small, poorly fitted or top-dose-only effect; inactive = no such curve, though single readings can be large or run the other way. Potencies beside an inconclusive call are fits to weak or partial responses and may not hold up.

target: Regulator of G-protein signaling 4 (Homo sapiens) (UniProt P49798); assay: Inhibitors of Regulator of G Protein Signaling (RGS) 4: qHTS; details: Transcreener GDP fluorescence polarization, RGS4-accelerated GTP hydrolysis; series mostly up to 114 µM; activity change, negative = inhibition: at the top concentration; also: nearly all actives have a fitted effect of over 75% in size
Sequence of UniProt P49798 (P49798 whole entry, looked up): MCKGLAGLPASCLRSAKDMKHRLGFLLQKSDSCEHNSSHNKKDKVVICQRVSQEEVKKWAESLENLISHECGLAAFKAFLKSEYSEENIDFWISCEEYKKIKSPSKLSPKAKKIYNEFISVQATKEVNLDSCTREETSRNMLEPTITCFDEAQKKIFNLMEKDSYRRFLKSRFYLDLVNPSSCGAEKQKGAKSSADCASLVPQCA
Procedure, shortened: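 MLSMR compounds (23 nl, pin-transferred) preincubated 10 min at room temperature with a 500nM (2x) first reagent, then RGS4 at 900nM (2x) plus Transcreener GDP mix added; fluorescence polarization (620/688 nm) read before and after 90 min at 30 °C.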
% is scaled to controls: 0 for no effect and ±100 for the full control effect; potency is read from the fitted curve at half-maximal effect; tags tell the direction and shape of the fitted curve.

Row | Compound | Potency | activity change, negative = inhibition
1 | Cc1cccc(N2C(=O)NC(=O)/C(=C\c3cnn(-c4ccccc4)c3)C2=O)c1 | inconclusive: 31.6 µM [inhibitor, full curve, poor fit] | –
2 | C=CCN1C(=O)NC(=O)/C(=C/c2ccc(OC)c(COc3ccc(NC(C)=O)cc3)c2)C1=O | inconclusive: 44.7 µM [inhibitor, partial curve, poor fit] | –
3 | O=C1NC(=O)C(Cc2cccs2)C(=O)N1 | inconclusive: 56.2 µM [inhibitor, partial curve, poor fit] | –
4 | CC/C(=C\C=C\[C@@H]1C=C[C@@H]2CCC[C@H]2[C@@H]1C(=O)c1ccc[nH]1)[C@@H]1O[C@@H]([C@@H](C)C(=O)O)CC[C@@H]1C | – | inactive: -19.4%
5 | Cc1cc(C=C2C(=O)N(C)C(=O)N(C)C2=O)c(C)n1-c1ccccc1 | – | inactive: -6.44% [at 11.4 µM]
6 | Cc1ccccc1CN1CCN(Cc2ccccc2)CC1 | – | inactive: -3.45%
7 | CCOc1ccc(C(C)=O)cc1Cc1c(O)[nH]c(=S)[nH]c1=O | inconclusive: 50.1 µM [inhibitor, partial curve, poor fit] | –
8 | Cc1ccc(Sc2ccc(C=C3C(=O)N(C)C(=O)N(C)C3=O)o2)cc1 | inconclusive: 50.1 µM [inhibitor, partial curve, poor fit] | –
9 | CCC(C)(C)n1nnnc1C(c1cccs1)N1CC=C(c2ccc(F)cc2)CC1 (centres undefined) | – | inactive: -11.3%
10 | OCCN1CCN(CCCN2c3ccccc3Sc3ccc(C(F)(F)F)cc32)CC1 | inconclusive: 3.77 µM [inhibitor, partial curve, poor fit] | –
11 | C=CCn1c(O)c(C=Nc2ccc(F)cc2)c(=O)[nH]c1=O | – | inactive: 15.5%
12 | Cc1cc2ccccn2c1C(C[N+](=O)[O-])c1c(F)cccc1Cl (centres undefined) | inconclusive: 44.7 µM [inhibitor, partial curve, poor fit] | –
13 | Cc1cc(C)cc(N2C(=O)NC(=O)/C(=C\C=C\c3ccco3)C2=O)c1 | inconclusive: 28.2 µM [inhibitor, full curve, poor fit] | –
14 | Cc1cc(N2CCOCC2)ccc1/C=C1\C(=O)NC(=O)N(c2ccccc2)C1=O | inconclusive: 56.2 µM [inhibitor, partial curve, poor fit] | –
15 | O=C(Nc1ccc2c(c1)OCCO2)c1cccn(Cc2ccccc2)c1=O | inconclusive: 79.4 µM [inhibitor, partial curve, poor fit] | –
16 | CCOC(=O)c1c(NC(NC(=O)CF)C(Cl)(Cl)Cl)sc2c1CCCC2 (centres undefined) | inconclusive: 56.2 µM [inhibitor, partial curve, poor fit] | –
17 | COc1ccc(C=C2C(=O)NC(=S)NC2=O)cc1 | inconclusive: 79.4 µM [inhibitor, partial curve, poor fit] | –

Row | Compound | Potency | activity change, negative = inhibition
18 | CN(C)c1nc(OCCNC(=O)COc2ccc(Cl)cc2Cl)nc(N2CCCCC2)n1 | – | inactive: 7.73%
19 | O=c1[nH]c(=S)n(C2CC2)c(O)c1/C=N/Nc1cccc2ccccc12 | inconclusive: 50.1 µM [inhibitor, partial curve, poor fit] | –
20 | O=C1C(c2ccccc2)=C(N2CC2)c2ccccc21 | – | inactive: -32%
21 | COc1ccccc1N1C(=O)NC(=O)/C(=C/c2ccc3c4c(cccc24)CC3)C1=O | inconclusive: 31.6 µM [inhibitor, full curve, poor fit] | –
22 | CC1(CCO)C(=O)NC(=S)NC1=O | inconclusive: 89.1 µM [inhibitor, single point] | –
23 | O=C1NC(=S)NC(=O)C1=Cc1ccc(OCC(=O)N2CCCC2)cc1 | inconclusive: 44.7 µM [inhibitor, partial curve, poor fit] | –
24 | Cc1ccc(S(=O)(=O)N[C@@H](CCCCN)C(=O)CCl)cc1 | inconclusive: 13.4 µM [inhibitor, partial curve, poor fit] | –
25 | O=C1NC(=O)N(Cc2ccccc2)C(=O)/C1=C/C=C/c1ccco1 | inconclusive: 28.2 µM [inhibitor, full curve, poor fit] | –
26 | COC1=CC(=O)[C@]2(C=C1OC)OC[C@@H]1Oc3c(ccc4c3C=CC(C)(C)O4)C(=O)[C@@H]12 | – | inactive: 8.6%
27 | O=C1NC(=O)C(Sc2ccccc2[N+](=O)[O-])C(=O)N1 | inconclusive: 22.4 µM [inhibitor, full curve, poor fit] | –
28 | COc1cc(/C=C2/C(=O)NC(=O)N(c3ccc(C)cc3)C2=O)cc(OC)c1OC | inconclusive: 44.7 µM [inhibitor, partial curve, poor fit] | –
29 | O=P(Nc1ccccc1)(Oc1ccccc1)Oc1ccccc1 | – | inactive: -25.7%
30 | COc1ccc(N2C(=O)NC(=O)/C(=C/c3cccc(OC(=O)c4cccs4)c3)C2=O)cc1Cl | inconclusive: 50.1 µM [inhibitor, partial curve, poor fit] | –
31 | COc1ccc(/C=C2\C(=O)NC(=S)N(C)C2=O)cc1C | inconclusive: 17.8 µM [inhibitor, full curve, poor fit] | –
32 | CCNC(=O)[C@H]1O[C@@H](n2cnc3c(N)ncnc32)[C@H](O)[C@@H]1O | inconclusive: 1.06 µM [inhibitor, partial curve, poor fit] | –
33 | Cc1ccc(N2C(=O)NC(=O)/C(=C/c3ccoc3)C2=O)cc1 | inconclusive: 50.1 µM [inhibitor, partial curve, poor fit] | –
34 | CN(C)c1ccc(/C=C/C=C/c2sc3ccccc3[n+]2C)cc1 | inconclusive: 35.5 µM [inhibitor, full curve, poor fit] | –
